This note sets out measurements from article PMC4336329 (PLoS ONE, 2015).

About 14,000 (4.5%) of roughly 310,000 compounds showed an effect of 50% or more. The effect is printed as a negative number. This is one part of the list.
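Further: peak tail current of the secondary pulse compared with the same well before compound.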

The target in the experiment is human ether-à-go-go-related gene (hERG) potassium channel (human, UniProt Q12809). The experiment in a line: primary screen, population patch clamp on CHO cells stably expressing hERG.
Chain of human ether-à-go-go-related gene (hERG) potassium channel (Q12809 whole entry, looked up): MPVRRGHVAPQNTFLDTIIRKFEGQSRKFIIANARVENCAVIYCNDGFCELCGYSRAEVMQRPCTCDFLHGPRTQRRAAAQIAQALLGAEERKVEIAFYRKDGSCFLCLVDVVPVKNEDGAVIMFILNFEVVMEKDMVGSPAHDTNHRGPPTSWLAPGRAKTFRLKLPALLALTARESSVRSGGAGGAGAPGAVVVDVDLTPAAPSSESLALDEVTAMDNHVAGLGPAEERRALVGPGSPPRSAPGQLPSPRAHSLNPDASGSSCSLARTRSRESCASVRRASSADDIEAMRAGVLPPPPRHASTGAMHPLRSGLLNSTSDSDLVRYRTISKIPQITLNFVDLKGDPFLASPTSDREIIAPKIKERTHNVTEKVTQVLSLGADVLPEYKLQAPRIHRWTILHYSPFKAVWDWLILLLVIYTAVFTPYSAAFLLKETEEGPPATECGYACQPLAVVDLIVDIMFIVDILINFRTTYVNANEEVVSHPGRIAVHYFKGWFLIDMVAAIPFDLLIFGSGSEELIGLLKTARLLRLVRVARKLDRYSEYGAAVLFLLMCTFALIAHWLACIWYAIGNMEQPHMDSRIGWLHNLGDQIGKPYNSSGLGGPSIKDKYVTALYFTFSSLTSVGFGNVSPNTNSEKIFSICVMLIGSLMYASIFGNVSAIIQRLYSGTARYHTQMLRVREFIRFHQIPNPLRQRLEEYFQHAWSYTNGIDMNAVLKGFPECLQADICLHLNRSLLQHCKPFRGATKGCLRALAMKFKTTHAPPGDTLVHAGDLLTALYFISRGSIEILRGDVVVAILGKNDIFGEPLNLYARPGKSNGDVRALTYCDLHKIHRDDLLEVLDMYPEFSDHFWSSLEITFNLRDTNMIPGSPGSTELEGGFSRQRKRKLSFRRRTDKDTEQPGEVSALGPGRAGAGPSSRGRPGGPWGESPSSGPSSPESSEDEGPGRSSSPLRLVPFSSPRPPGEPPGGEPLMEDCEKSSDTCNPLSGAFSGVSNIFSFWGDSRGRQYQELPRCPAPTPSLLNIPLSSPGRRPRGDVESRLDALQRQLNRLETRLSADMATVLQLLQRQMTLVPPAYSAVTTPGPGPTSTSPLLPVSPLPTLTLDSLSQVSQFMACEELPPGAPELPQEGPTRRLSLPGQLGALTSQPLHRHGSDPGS
In the case of `CCOc1ccc2c(c1)C(N(CCN1CCOCC1)C(=O)Nc1ccccc1)CC(C)(C)O2` (stereo not drawn), the “hERG current change (%, negative = inhibition) at 10uM” value is given as -19.1%.
Regarding `Cc1ccc(-c2nnn(CC(=O)NC3CC4CCC3C4)n2)cc1` (stereo not drawn), the “hERG current change (%, negative = inhibition) at 10uM” value stood at 1.64%.
For the compound `CC(C)[C@H](NC(=O)c1ccccc1)C(=O)OCC(=O)NCCC1=CCCCC1`, the “hERG current change (%, negative = inhibition) at 10uM” value is reported as -29.5%.
Regarding `Cn1cc(S(=O)(=O)N2CCc3ccccc32)cc1C(=O)NC(C)(C)C`, the “hERG current change (%, negative = inhibition) at 10uM” value was -1.54%.
To `CC1=C(C(=O)OCC2CCCCC2)C(c2ccc(F)cc2)NC(=O)N1` (stereo not drawn) belongs 15.6%; to `COc1ccc(C2=[N+](C)CCn3cccc32)c(OC)c1.[I-]`, 9.68%; to `Cc1cc(Nc2ccc(N3CCOCC3)cc2)c2cccc(C)c2n1.Cl`, -56.6%.
Take `COc1ccc(Cl)cc1NC(=O)CS(=O)(=O)c1cccc2nsnc12`: the “hERG current change (%, negative = inhibition) at 10uM” value was -2.44%.
For the compound `O=C1N(Nc2ccccc2)C(c2ccc(Br)cc2)C12CCCCC2` (stereo not drawn), the “hERG current change (%, negative = inhibition) at 10uM” value was determined as 21%.
With `COCCN(C(=O)CSc1nc(-c2ccccc2)cn1N)c1c(N)n(Cc2ccccc2)c(=O)[nH]c1=O`, the “hERG current change (%, negative = inhibition) at 10uM” value is -9.07%.
As for `CCN1CCCc2cc(CN(CCN3CCOCC3)C(=S)Nc3ccc(OC)c(OC)c3)ccc21`, the figure is 13%.
Take `Cc1cccc(NNC(=O)c2c(F)cccc2Cl)c1`: the “hERG current change (%, negative = inhibition) at 10uM” value worked out at 11.3%.
As for `Cc1cc(C(=O)N/N=C/c2cccn2C)n[nH]1`, the “hERG current change (%, negative = inhibition) at 10uM” value is recorded as -18.9%.
Regarding `CC(C)OC(=O)c1nnc(Cc2ccc(F)cc2)o1`, the “hERG current change (%, negative = inhibition) at 10uM” value is recorded as -3.8%.
`COc1cccc(OC)c1NC(=O)C1CCCN1C(=O)NCc1ccccc1` (stereo not drawn): the “hERG current change (%, negative = inhibition) at 10uM” value is listed as 2.56%.
Take `COc1ccc(OC(=O)Cc2cccc3ccccc23)cc1`: the “hERG current change (%, negative = inhibition) at 10uM” value amounted to 13.5%.
In the case of `CC1CCCCC12NC(=O)N(CC(=O)OCC(=O)c1ccc(OC(F)F)cc1OC(F)F)C2=O` (stereo not drawn), the “hERG current change (%, negative = inhibition) at 10uM” value is -47%.
For `Cc1cccc(/C=N\Nc2cn[nH]c(=O)c2Cl)c1`, the “hERG current change (%, negative = inhibition) at 10uM” value is reported as 14.2%.
As to `O=C(Nc1cc(C(F)(F)F)ccc1N1CCOCC1)c1cccc(F)c1`, the “hERG current change (%, negative = inhibition) at 10uM” value is reported as -13.3%.
As to `CCN(CC)C(=O)CN(C#N)c1nc(OC)nc(N(C)C)n1`, the “hERG current change (%, negative = inhibition) at 10uM” value worked out at 7.99%.
For `CC(=O)c1ccc(N2CCN(CC(=O)NCc3ccccc3)CC2)cc1`, the “hERG current change (%, negative = inhibition) at 10uM” value is -44.3%.
To `CC(=O)Nc1cccc(OCCCNC(=O)C2CCC2)c1` belongs 14.7%; to `CCOC(=O)C1=C(c2ccccc2)NC(SCC(=O)Nc2cccc(C)c2)=C(C#N)C1c1ccco1` (stereo not drawn), -5.87%.
`O=C(CSc1ccc(Cl)cc1)Nc1ccc(N2CCN(C(=O)c3ccc(Cl)cc3)CC2)cc1`: the “hERG current change (%, negative = inhibition) at 10uM” value came out at 0.824%.
Turning to `CCOC(=O)C1CCCN(C(=O)C2CCN(S(=O)(=O)CC)CC2)C1` (stereo not drawn), the “hERG current change (%, negative = inhibition) at 10uM” value is on record as 5.04%.
With `CCn1ncc(/C=N\NC(=O)Cc2ccc([N+](=O)[O-])cc2)c1C`, the “hERG current change (%, negative = inhibition) at 10uM” value is listed as -19.2%.
With `C/C(=N\NC(=O)c1ccccc1O)C1C(=O)c2ccccc2C1=O`, the “hERG current change (%, negative = inhibition) at 10uM” value is recorded as -0.25%.
`O=C(CCCn1c(=S)[nH]c2cc3c(cc2c1=O)OCO3)N1CCN(c2ccccc2)CC1`: the “hERG current change (%, negative = inhibition) at 10uM” value is listed as -14%.
As for `O[C@@H]1CCCN2CCc3c([nH]c4ccccc34)[C@H]12`, the “hERG current change (%, negative = inhibition) at 10uM” value turned out to be 10.9%.
Consider `CC(C)CCN1CCN(Cc2cccs2)CC1CCO` (stereo not drawn), for which the “hERG current change (%, negative = inhibition) at 10uM” value was -10.7%.
For the compound `COc1ccc(CNC(=O)CCC(=O)Nc2cccnc2)cc1`, the “hERG current change (%, negative = inhibition) at 10uM” value amounted to 15.8%.
For the compound `Cc1cccc(C)c1NC(=O)CCCN1C(=O)C(c2ccccc2)Oc2cccnc21` (stereo not drawn), the “hERG current change (%, negative = inhibition) at 10uM” value worked out at 17.3%.
In the case of `O=C(NCCCN1CCOCC1)c1ccc(Cl)s1`, the “hERG current change (%, negative = inhibition) at 10uM” value is -13.5%.
`Cc1ccccc1N1CCN(S(=O)(=O)CC23CCC(CC2=O)C3(C)C)CC1` (stereo not drawn): the “hERG current change (%, negative = inhibition) at 10uM” value was determined as 11.8%.
Take `O=S(=O)(NCc1ccc(Cl)cc1)NCc1ccccc1F`: the “hERG current change (%, negative = inhibition) at 10uM” value is on record as 3.81%.
Regarding `CCCc1nnc(NC(=O)CCC(=O)NCc2ccccc2)s1`, the “hERG current change (%, negative = inhibition) at 10uM” value amounted to 18.8%.
Regarding `COC(=O)c1ccc(/C=N/Nc2nc(-c3ccccc3)cs2)cc1`, the “hERG current change (%, negative = inhibition) at 10uM” value was found to be 15.4%.
Consider `O=C(NCc1ccc(F)cc1)C1CCN(S(=O)(=O)c2ccc(Br)s2)CC1`, for which the “hERG current change (%, negative = inhibition) at 10uM” value is reported as -21%.
Consider `CCc1nc2ccccc2c(=O)n1NC(=O)c1c(O)c2cccc3c2n(c1=O)CCC3`, for which the “hERG current change (%, negative = inhibition) at 10uM” value was 20.9%.
For the compound `O=P(Oc1ccccc1)(Oc1ccccc1)C(O)c1ccc(Cl)cc1` (stereo not drawn), the “hERG current change (%, negative = inhibition) at 10uM” value is 4.7%.
Consider `Cc1ccccc1CN1CCN(CC2CC2)CC1CCO` (stereo not drawn), for which the “hERG current change (%, negative = inhibition) at 10uM” value is -4.79%.
To `N#Cc1c(SCC(=O)Nc2nccs2)sc2c(O)cc(=O)[nH]c12` belongs 7.55%.
Turning to `CC(C)CCn1c(NCCc2ccccc2)nc2c1c(=O)n(C)c(=O)n2C`, the “hERG current change (%, negative = inhibition) at 10uM” value is recorded as -18.3%.
To `CCOC(=O)c1cc(=O)[nH]c2ccccc12` belongs 19%; to `COc1ccc(NP(=O)(Oc2ccc(Cl)cc2)Oc2ccc(Cl)cc2)cc1OC`, -16.6%.
